Source: PubChem BioAssay (Tox21)
Inconclusive results, whose numbers are uncertain, are shown with a selection of clear calls. For some of these results: Potencies beside an inconclusive call are fits to weak or partial responses and may not hold up. Calls of active or inactive are those of the source. Unless noted, calls follow the shape of the full dose curve.

Tests used:
[1] = target: Peroxisome proliferator-activated receptor delta (Homo sapiens) (UniProt Q03181); assay: qHTS assay to identify small molecule antagonists of the peroxisome proliferator-activated receptor delta (PPARd) signaling pathway (AID 743215; active = well fitted inhibition curve with a large enough effect in the signal ratio in the repeat runs, not every such curve was filed as active; inconclusive = weak or mixed curves, or effect the other way; inactive = no such curve, though single readings can be large or run the other way; the % refers to the signal ratio;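 also: cells stimulated with agonist L165041 at 300 nM final during compound exposure; % is scaled to controls: 0 for no effect and ±100 for the full control effect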); settings: HEK293H PPARd-UAS-bla, beta-lactamase FRET ratio, antagonist, 17 h; ratio activity, negative = inhibition: at 62 µM (top of the series) unless noted
Sequence of UniProt Q03181 (Q03181 whole entry, looked up): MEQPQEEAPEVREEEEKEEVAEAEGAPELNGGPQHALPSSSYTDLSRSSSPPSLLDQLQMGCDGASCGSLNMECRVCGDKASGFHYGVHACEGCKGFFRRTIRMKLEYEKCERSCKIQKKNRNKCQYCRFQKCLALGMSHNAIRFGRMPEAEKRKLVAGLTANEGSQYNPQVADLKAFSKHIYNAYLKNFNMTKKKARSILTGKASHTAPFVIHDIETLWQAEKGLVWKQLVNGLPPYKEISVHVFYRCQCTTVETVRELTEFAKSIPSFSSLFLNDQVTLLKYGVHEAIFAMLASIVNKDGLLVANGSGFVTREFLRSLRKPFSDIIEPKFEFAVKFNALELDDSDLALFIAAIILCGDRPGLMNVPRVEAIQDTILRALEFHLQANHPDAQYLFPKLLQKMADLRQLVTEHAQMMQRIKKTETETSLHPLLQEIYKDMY
Outline: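 HEK293H GeneBLAzer PPARd UAS-bla reporter cells; cpd + L165041 300 nM final, 17 h 37 C; LiveBLAzer B/G FRET substrate 2 h RT; fluorescence intensity read-out. Antagonist mode.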

[2] = target: Vitamin D3 receptor (Homo sapiens) (UniProt P11473); assay: qHTS assay to identify small molecule antagonists of the vitamin D receptor (VDR) signaling pathway (AID 743223; active = well fitted inhibition curve with a large enough effect in the signal ratio in the repeat runs, not every such curve was filed as active; inconclusive = weak or mixed curves, or effect the other way; inactive = no such curve, though single readings can be large or run the other way; the % refers to the signal ratio; also: % is scaled to controls: 0 for no effect and ±100 for the full control effect); settings: VDR-UAS-bla HEK293T, beta-lactamase FRET ratio, 16 h; activity change, negative = inhibition: at 61 µM (top of the series) unless noted
Sequence of UniProt P11473 (P11473 whole entry, looked up): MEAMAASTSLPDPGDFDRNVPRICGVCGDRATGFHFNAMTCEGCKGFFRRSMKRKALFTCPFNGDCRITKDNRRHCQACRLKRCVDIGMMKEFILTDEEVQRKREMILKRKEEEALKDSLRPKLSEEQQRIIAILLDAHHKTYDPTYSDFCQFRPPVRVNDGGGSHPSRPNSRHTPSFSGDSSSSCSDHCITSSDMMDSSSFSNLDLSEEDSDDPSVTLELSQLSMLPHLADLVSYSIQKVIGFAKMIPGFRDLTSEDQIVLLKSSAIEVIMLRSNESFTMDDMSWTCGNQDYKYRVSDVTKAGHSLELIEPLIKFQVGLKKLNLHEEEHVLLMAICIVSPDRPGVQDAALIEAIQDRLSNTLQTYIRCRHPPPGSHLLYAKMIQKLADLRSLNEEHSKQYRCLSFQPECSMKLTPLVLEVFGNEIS
Outline: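 Cells carrying a VDR-driven beta-lactamase reporter (VDR-bla) were co-treated with compound and 3 nM final 1alpha,25-dihydroxyvitamin D3 for 16 h at 37C; reporter activity was measured as FRET substrate fluorescence after 2 h at room temperature.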

[3] = qHTS assay to identify small molecule agonists of the vitamin D receptor (VDR) signaling pathway - cell viability counter screen (AID 743224; active = well fitted curve in the direction sought with a large enough effect in the repeat runs; inconclusive = weak or mixed curves; inactive = no such curve, though single readings can be large; an effect the other way counts as inactive or inconclusive; also: % is scaled to controls: 0 for no effect and ±100 for the full control effect; nearly all actives have a fitted effect of over 50% in size); settings: VDR-bla HEK293T viability, CellTiter-Glo luminescence, 16 h; activity change, negative = cytotoxicity: at 62.6 µM (top of the series)
Outline: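 Cytotoxicity counter screen: VDR-bla cells, 16 h compound exposure at 37C, 5% CO2; CellTiter-Glo luminescence, 30 min RT, same wells as bla read.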

[4] = qHTS assay to identify small molecule agonists of the endoplasmic reticulum stress response signaling pathway - cell viability counter screen (AID 1159517); also: nearly all actives have a fitted effect of over 50% in size; also: potency is read from the fitted curve at half-maximal effect;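 as to activity change, negative = cytotoxicity: HeLa cells carrying an ER stress response element beta-lactamase reporter; % is scaled to controls: 0 for no effect and ±100 for the full control effect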
Outline: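 Cpd-treated ESRE-bla HeLa (5 hr, 37 C) → LiveBLAzer 2 hr RT → CellTiter-Glo 30 min RT → luminescence.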

[5] = target: Nuclear receptor ROR-gamma (Homo sapiens) (UniProt P51449); assay: qHTS assay to identify small molecule antagonists of the retinoid-related orphan receptor gamma (ROR-gamma) signaling pathway (AID 1159521; active = well fitted curve in the direction sought with a large enough effect in the repeat runs; inconclusive = weak or mixed curves; inactive = no such curve, though single readings can be large; an effect the other way counts as inactive or inconclusive; also: nearly all actives have a fitted effect of over 50% in size; also: potency is read from the fitted curve at half-maximal effect;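 as to activity change, negative = inhibition: CHO cells with doxycycline inducible ROR-gamma driving an RORE luciferase reporter; top concentration of the series differs between compounds; % is scaled to controls: 0 for no effect and ±100 for the full control effect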)
Outline: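 Cells were plated, rested 4 h at 37 C, exposed to compounds for 2 h, then given 1 uM final doxycycline hyclate to induce RORγ expression. After 16 h, ONE-Glo luminescence from the ROR response element reporter was measured.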

[6] = qHTS assay to identify small molecule agonists of the AP-1 signaling pathway - cell viability counter screen (AID 1159525); also: nearly all actives have a fitted effect of over 55% in size; also: potency is read from the fitted curve at half-maximal effect
Outline: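 Each titration point was normalised to DMSO and tetra n-octyl ammonium bromide controls. The read was Cell Titer Glo luminescence after 30 min at RT, following 5 h compound exposure of ME-180 AP-1-bla cells at 37 °C.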

[7] = qHTS assay to identify small molecule agonists of the AP-1 signaling pathway (AID 1159526); settings: ME-180 (cervical carcinoma) AP-1-bla reporter, beta-lactamase FRET ratio, 5 h; activation: at 76.8 µM (top of the series) unless noted; also: potency is read from the fitted curve at half-maximal effect
[8] = qHTS assay to identify small molecule antagonists of the farnesoid-X-receptor (FXR) signaling pathway - cell viability counter screen (AID 743221; active = well fitted cell-killing curve with a large enough effect in the repeat runs, not every such curve was filed as active; inconclusive = weak or mixed curves, or effect the other way; inactive = no such curve, though single readings can be large or run the other way; also: nearly all actives have a fitted effect of over 50% in size; also: potency is read from the fitted curve at half-maximal effect); settings: FXR-bla HEK293T viability, CellTiter-Glo luminescence, 16 h; activity change, negative = cytotoxicity: at 62.6 µM (top of the series)
Outline: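 Multiplexed counter screen: viability of FXR-bla HEK 293T cells under agonist stimulation by chenodeoxycholic acid (50 uM, final) and test compound for 16 h at 37 C, measured by CellTiter-Glo luminescence in the reporter wells.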

[9] = target: Vitamin D3 receptor (Homo sapiens) (UniProt P11473); assay: qHTS assay to identify small molecule agonists of the vitamin D receptor (VDR) signaling pathway (AID 743222); settings: HEK293T VDR-UAS-bla, beta-lactamase FRET ratio, 16 h; activation: at 63.5 µM (top of the series) unless noted; also: potency is read from the fitted curve at half-maximal effect
Outline: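 Beta-lactamase reporter readout (LiveBLAzer B/G FRET, 2 h RT) in VDR-bla cells after 16 h compound treatment at 37C, 5% CO2; cells pre-incubated 4 h before pin transfer of DMSO solutions.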

[10] = target: Retinoic acid receptor RXR-alpha (Homo sapiens) (UniProt P19793); assay: qHTS assay to identify small molecule agonists of the RXR signaling pathway (AID 1159527); settings: HEK293T RXRa-UAS-bla, beta-lactamase ratio, 16 h; activation: at 76.8 µM (top of the series) unless noted; also: nearly all actives have a fitted effect of over 35% in size; also: potency is read from the fitted curve at half-maximal effect
Sequence of UniProt P19793 (P19793 whole entry, looked up): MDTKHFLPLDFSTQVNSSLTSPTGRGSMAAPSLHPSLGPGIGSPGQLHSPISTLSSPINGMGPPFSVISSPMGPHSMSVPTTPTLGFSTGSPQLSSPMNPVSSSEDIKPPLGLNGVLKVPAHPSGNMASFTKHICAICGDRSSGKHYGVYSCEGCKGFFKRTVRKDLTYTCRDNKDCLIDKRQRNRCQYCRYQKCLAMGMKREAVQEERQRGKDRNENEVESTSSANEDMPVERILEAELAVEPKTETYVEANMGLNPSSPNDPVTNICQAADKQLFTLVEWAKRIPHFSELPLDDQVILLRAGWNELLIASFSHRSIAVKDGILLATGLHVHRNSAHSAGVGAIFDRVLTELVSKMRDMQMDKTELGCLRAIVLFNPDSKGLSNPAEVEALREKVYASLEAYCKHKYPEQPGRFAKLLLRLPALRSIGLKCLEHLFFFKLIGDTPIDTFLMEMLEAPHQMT
Outline: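 Cells plated at 2,000/well, rested 5 hr at 37 C, pin-dosed with DMSO compound solutions, incubated 16 hr, then loaded with B/G FRET substrate for 2 hr at RT before dual-emission fluorescence reading.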

[11] = qHTS assay to identify small molecule antagonists of the peroxisome proliferator-activated receptor delta (PPARd) signaling pathway - cell viability counter screen (AID 743213; active = well fitted curve in the direction sought with a large enough effect in the repeat runs; inconclusive = weak or mixed curves; inactive = no such curve, though single readings can be large; an effect the other way counts as inactive or inconclusive); settings: PPARd-bla HEK293H viability, CellTiter-Glo luminescence, 17 h; viability change, negative = cytotoxic: at 62 µM (top of the series) unless noted
Outline: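 CellTiter-Glo was added to PPARd-bla HEK293H wells following 17 h compound treatment in the presence of 300 nM L165041. Luminescence was recorded after 30 min at room temperature.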

[12] = target: Bile acid receptor (Homo sapiens) (UniProt Q96RI1); assay: qHTS assay to identify small molecule antagonists of the farnesoid-X-receptor (FXR) signaling pathway (AID 743217; active = well fitted inhibition curve with a large enough effect in the signal ratio in the repeat runs, not every such curve was filed as active; inconclusive = weak or mixed curves, or effect the other way; inactive = no such curve, though single readings can be large or run the other way; the % refers to the signal ratio; also: potency is read from the fitted curve at half-maximal effect); settings: HEK293T FXR-UAS-bla, beta-lactamase ratio, CDCA-stimulated, 16 h; activity change, negative = inhibition: at 62.6 µM (top of the series) unless noted
Sequence of UniProt Q96RI1 (Q96RI1 whole entry, looked up): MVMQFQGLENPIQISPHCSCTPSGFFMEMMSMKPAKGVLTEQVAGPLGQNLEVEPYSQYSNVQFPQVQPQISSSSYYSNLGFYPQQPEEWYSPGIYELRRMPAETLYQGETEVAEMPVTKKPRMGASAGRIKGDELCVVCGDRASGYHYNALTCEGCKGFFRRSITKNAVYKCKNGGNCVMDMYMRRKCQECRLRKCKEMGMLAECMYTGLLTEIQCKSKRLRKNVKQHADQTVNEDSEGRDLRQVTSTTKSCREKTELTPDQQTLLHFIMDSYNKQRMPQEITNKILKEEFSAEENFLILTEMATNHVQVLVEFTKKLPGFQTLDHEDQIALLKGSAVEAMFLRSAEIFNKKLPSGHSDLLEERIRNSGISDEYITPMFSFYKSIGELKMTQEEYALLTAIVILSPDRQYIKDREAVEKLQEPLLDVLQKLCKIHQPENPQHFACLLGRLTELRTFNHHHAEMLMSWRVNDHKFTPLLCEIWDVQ
Outline: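 Read-out: beta-lactamase FRET fluorescence (LiveBLAzer B/G substrate, 2 h, room temperature) in GeneBLAzer FXR-UAS-bla HEK 293T cells. Compounds were co-dosed with 50 uM chenodeoxycholic acid (final) and incubated 16 h at 37 °C.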

[13] = target: Bile acid receptor (Homo sapiens) (UniProt Q96RI1); assay: qHTS assay to identify small molecule agonists of the farnesoid-X-receptor (FXR) signaling pathway (AID 743220; active = well fitted activation curve with a large enough effect in the signal ratio in the repeat runs, not every such curve was filed as active; inconclusive = weak or mixed curves, or effect the other way; the % refers to the signal ratio; also: potency is read from the fitted curve at half-maximal effect); settings: HEK293T FXR-UAS-bla, beta-lactamase FRET ratio, 16 h; activation: at 62.6 µM (top of the series) unless noted
Outline: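 FXR-UAS-bla HEK 293T cells carrying a UAS-driven beta-lactamase reporter were plated for 5 h at 37C/5% CO2, then exposed to DMSO-dissolved Tox21 10K compounds for 16 h at 37C. A LiveBLAzer B/G FRET substrate was loaded for 2 h at room temperature before fluorescence reading.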

[14] = qHTS assay to identify small molecule antagonists of the vitamin D receptor (VDR) signaling pathway - cell viability counter screen (AID 743225; active = well fitted curve in the direction sought with a large enough effect in the repeat runs; inconclusive = weak or mixed curves; inactive = no such curve, though single readings can be large; an effect the other way counts as inactive or inconclusive; also: nearly all actives have a fitted effect of over 50% in size; also: potency is read from the fitted curve at half-maximal effect); settings: VDR-bla HEK293T viability, CellTiter-Glo luminescence, 16 h; viability change, negative = cytotoxic: at 61 µM (top of the series) unless noted
Outline: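 HEK293T VDR-bla; cpd + 1a,25-(OH)2D3 3 nM final, 16 h 37C/5% CO2; B/G FRET substrate 2 h RT; then CellTiter-Glo 30 min RT, luminescence.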

[15] = qHTS assay to identify small molecule antagonists of the retinoid acid receptor (RAR) signaling pathway - cell viability counter screen (AID 1159551; active = well fitted curve in the direction sought with a large enough effect in the repeat runs; inconclusive = weak or mixed curves; inactive = no such curve, though single readings can be large; an effect the other way counts as inactive or inconclusive; also: potency is read from the fitted curve at half-maximal effect; nearly all actives have a fitted effect of over 35% in size)
Outline: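 C3RL4 RARE-luciferase line; cpds + retinol 1 uM final, 6 h, 37 C/5% CO2; CellTiter-Glo ATP luminescence, 30 min RT.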

[16] = qHTS assay to identify small molecule agonists of the farnesoid-X-receptor (FXR) signaling pathway - cell viability counter screen (AID 743218; active = well fitted curve in the direction sought with a large enough effect in the repeat runs; inconclusive = weak or mixed curves; inactive = no such curve, though single readings can be large; an effect the other way counts as inactive or inconclusive; also: nearly all actives have a fitted effect of over 45% in size; also: potency is read from the fitted curve at half-maximal effect); settings: FXR-bla HEK293T viability, CellTiter-Glo luminescence, 16 h; viability change, negative = cytotoxic: at 62.6 µM (top of the series) unless noted
Outline: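 Luminescence from CellTiter-Glo, read after 30 min at RT, reports viability of GeneBLAzer FXR-UAS-bla HEK 293T cells treated 16 h with compounds in the wells used for the beta-lactamase reporter.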

[17] = qHTS assay to identify small molecule agonists of the RXR signaling pathway - cell viability counter screen (AID 1159529; active = well fitted curve in the direction sought with a large enough effect in the repeat runs; inconclusive = weak or mixed curves; inactive = no such curve, though single readings can be large; an effect the other way counts as inactive or inconclusive)
Outline: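 Steps: seed RXR-alpha-UAS-bla HEK 293T cells in assay medium containing 2% charcoal-stripped FBS; incubate 5 hr; add compounds in DMSO; incubate 16 hr at 37 C; after the bla read, add CellTiter-Glo and read luminescence at 30 min.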

[18] = target: Peroxisome proliferator-activated receptor delta (Homo sapiens) (UniProt Q03181); assay: qHTS assay to identify small molecule agonists of the peroxisome proliferator-activated receptor delta (PPARd) signaling pathway (AID 743212); settings: HEK293H PPARd-UAS-bla, beta-lactamase FRET ratio, 17 h; activation: at 62.6 µM (top of the series) unless noted; also: potency is read from the fitted curve at half-maximal effect
Outline: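 Cells expressing a UAS-driven beta-lactamase reporter (PPARd-bla HEK293H) were given test compounds after a 5 h settle and kept at 37 C. Reporter activity was then measured as FRET fluorescence using LiveBLAzer B/G substrate.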
Tags tell the direction and shape of the fitted curve or compound fluorescence and quenching.

Cc1cccc(C(=O)O)c1[N+](=O)[O-]
inconclusive: activity change, negative = inhibition [2] 38.7%
inactive: Potency [1] | Potency [3] | Potency [4] | Potency [5]

CC(C)C[C@@H](N)C(=O)O
inactive: Potency [4] | viability change, negative = cytotoxic [6] -0.425% [at 15.8 µM] | activation [7] -5.77% [at 15.8 µM]

C=C(C)[C@H]1CC=C(C)C(=O)C1
inactive: Potency [8] | Potency [4] | Potency [5]
inconclusive: activation [9] -4.26% [at 81.1 µM] | activation [10] -11.9%

O=C(O)c1cc(C(=O)O)cc(S(=O)(=O)O)c1
inactive: Potency [12] | Potency [2] | Potency [3] | Potency [4]
inconclusive: Potency [11] 0.123 µM [rising, full curve, poor fit] | Potency [5] 0.098 µM [inhibitor, full curve, poor fit]

O=C(O)CCCC[C@@H]1SC[C@@H]2NC(=O)N[C@@H]21
inactive: Potency [4]
inconclusive: Potency [6] 0.213 µM [cytotoxic, single point]

Cc1ccc2c(c1[N+](=O)[O-])C(=O)c1ccccc1C2=O
inactive: Potency [1] | Potency [9]
inconclusive: activity change, negative = inhibition [12] -8.31% | activity change, negative = inhibition [2] 31% | Potency [4] 27 µM [cytotoxic, single point] | Potency [6] 0.0008 µM [cytotoxic] | Potency [7] 21.5 µM

Oc1cccc2ccccc12
inactive: Potency [2] | Potency [4]
inconclusive: activity change, negative = inhibition [12] 1.78% | Potency [13] 22.4 µM [activator] | Potency [14] 22.4 µM [rising, partial curve] | Potency [5] 61.1 µM [inhibitor, partial curve, poor fit] | Potency [15] 79 µM [rising, partial curve, poor fit]

C[C@@H]1O[C@@H](OC[C@H]2O[C@@H](Oc3c(-c4ccc(O)c(O)c4)oc4cc(O)cc(O)c4c3=O)[C@H](O)[C@@H](O)[C@@H]2O)[C@H](O)[C@H](O)[C@H]1O
inactive: Potency [9]
inconclusive: Potency [11] 0.0621 µM [cytotoxic, full curve, poor fit] | Potency [16] 1.24 µM [rising, full curve, poor fit] | Potency [4] 10.7 µM [cytotoxic, partial curve, poor fit] | Potency [5] 0.0007 µM [inhibitor]

CCN(CC)C(=O)/C(C#N)=C/c1cc(O)c(O)c([N+](=O)[O-])c1
inconclusive: ratio activity, negative = inhibition [1] -15.9% | Potency [12] 9.44 µM [activator, partial curve] | Potency [13] 21.1 µM [activator, partial curve, poor fit] | Potency [9] 2.11 µM [rising, partial curve] | activity change, negative = inhibition [2] -32% | Potency [4] 10.7 µM [rising, single point] | Potency [5] 26.6 µM [inhibitor] | Potency [10] 21.3 µM [fluorescent, partial curve, poor fit]
inactive: Potency [16] | Potency [14]

CN(C)Cc1cc(C(C)(C)C)c(O)c(C(C)(C)C)c1
inactive: Potency [2] | Potency [6]
active: Potency [10] 11 µM
inconclusive: ratio activity, negative = inhibition [1] -12.8% | Potency [16] 61.6 µM [cytotoxic, single point] | Potency [8] 24.5 µM | Potency [14] 54.9 µM [cytotoxic, partial curve, poor fit] | Potency [4] 19.5 µM [cytotoxic, partial curve] | Potency [17] 13.8 µM [cytotoxic, partial curve]

O=[N+]([O-])c1nccn1CO[C@@H](CO)[C@H](O)CO
inactive: Potency [4] | Potency [7] | Potency [10]
inconclusive: Potency [6] 0.213 µM [cytotoxic, single point]

CCCOc1ccc2c(c1)CC[C@@H]1[C@@H]2CC[C@]2(C)C(OC)CC[C@@H]12 (some centres undefined)
inactive: Potency [1] | Potency [9] | Potency [4]
inconclusive: activity change, negative = inhibition [2] 1.36% | Potency [6] 26.8 µM [cytotoxic, partial curve, poor fit] | Potency [7] 26.8 µM [falling, partial curve, poor fit] | Potency [10] 26.8 µM [partial curve, poor fit] | Potency [17] 26.8 µM [cytotoxic, partial curve, poor fit]

CCC(CC)(CC(=O)Nc1cccc(/C=C/c2nc(C3CCC3)cs2)c1)C(=O)O
inactive: Potency [1] | Potency [6]
inconclusive: Potency [18] 4.22 µM [rising, full curve, poor fit] | Potency [16] 1.5 µM [rising, partial curve, poor fit] | Potency [9] 26.6 µM [rising, partial curve, poor fit] | activity change, negative = inhibition [2] 11.7% | Potency [4] 19 µM [cytotoxic, partial curve, poor fit] | activation [10] -13% [at 35.3 µM]
